This is one part of the list. The list includes weakly bound sequences.

For this assay, the target named is T1, MBP-FoxP3dN (UniProt Q99JB6).
T1 sequence: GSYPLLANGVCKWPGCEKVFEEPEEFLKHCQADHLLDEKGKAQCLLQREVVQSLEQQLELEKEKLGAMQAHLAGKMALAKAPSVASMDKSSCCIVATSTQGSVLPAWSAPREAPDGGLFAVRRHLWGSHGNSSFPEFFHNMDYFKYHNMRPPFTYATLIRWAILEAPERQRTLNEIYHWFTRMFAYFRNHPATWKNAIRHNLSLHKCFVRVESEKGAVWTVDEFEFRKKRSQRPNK
Kind of assay: PD-seq (MBP pull-down with sequencing). Conditions: 20 mM Tris-HCl pH 7.5, 100 mM NaCl, 1.5 mM MgCl2, 0.4 uM protein, 0.1 uM dsDNA library, 30 min, room temperature, amylose pull-down; high values mean tight binding; double strand, one strand shown.
Take “GATGATTGTTCTCCCAGCTGATGAATTGGGGACTTCGAGTAAACAAATTTTCCTAATCTTTCTGTTCAAGCGCCATCTAC”: the binding signal (RPM ratio (pull-down/input)) was 0.416. The same measure for “GATGATTGTTCTCCCAGCTGATGAATTGTGGGGTTCGAGTAAACAAATTTTCCTAATCTTTCTGTTCAAGCGCCATCTAC”: 0.885. Regarding “GATGATTGTTCTCCCAGCTGATGAATTGCGGGGGTCGAGTAAACAAATTTTCCTAATCTTTCTGTTCAAGCGCCATCTAC”, the binding signal (RPM ratio (pull-down/input)) stood at 0.984. Next, “GATGATTGTTCTCCCAGCTGATGAATTGATCCAGTCGAGTAAACAAATTTTCCTAATCTTTCTGTTCAAGCGCCATCTAC”: 0.283; “GATGATTGTTCTCCCAGCTGATGAATTCTAGCACTCGAGTAAACAAATTTTCCTAATCTTTCTGTTCAAGCGCCATCTAC”: 0.533; “GATGATTGTTCTCCCAGCTGATGAATTGCATATGTCGAGTAAACAAATTTTCCTAATCTTTCTGTTCAAGCGCCATCTAC”: 1.46. For the sequence “GATGATTGTTCTCCCAGCTGATGAATTCTCGCGATCGAGTAAACAAATTTTCCTAATCTTTCTGTTCAAGCGCCATCTAC”, the binding signal (RPM ratio (pull-down/input)) was 0.472. For the sequence “GATGATTGTTCTCCCAGCTGATGAATTAGCCGTTTCGAGTAAACAAATTTTCCTAATCTTTCTGTTCAAGCGCCATCTAC”, the binding signal (RPM ratio (pull-down/input)) stood at 0.47.

As for “GATGATTGTTCTCCCAGCTGATGAATTACAGAAATCGAGTAAACAAATTTTCCTAATCTTTCTGTTCAAGCGCCATCTAC”, the binding signal (RPM ratio (pull-down/input)) is 0.35. For “GATGATTGTTCTCCCAGCTGATGAATTCACTCAATCGAGTAAACAAATTTTCCTAATCTTTCTGTTCAAGCGCCATCTAC”, the binding signal (RPM ratio (pull-down/input)) amounted to 0.294. In the case of “GATGATTGTTCTCCCAGCTGATGAATTTTAGAGCTCGAGTAAACAAATTTTCCTAATCTTTCTGTTCAAGCGCCATCTAC”, the binding signal (RPM ratio (pull-down/input)) was 0.218. Next, “GATGATTGTTCTCCCAGCTGATGAATTCTTCCGTTCGAGTAAACAAATTTTCCTAATCTTTCTGTTCAAGCGCCATCTAC”: 0.185. Consider “GATGATTGTTCTCCCAGCTGATGAATTATACCGATCGAGTAAACAAATTTTCCTAATCTTTCTGTTCAAGCGCCATCTAC”, for which the binding signal (RPM ratio (pull-down/input)) was 0.367. “GATGATTGTTCTCCCAGCTGATGAATTAGTCCCATCGAGTAAACAAATTTTCCTAATCTTTCTGTTCAAGCGCCATCTAC”: the binding signal (RPM ratio (pull-down/input)) worked out at 0.565.

As for “GATGATTGTTCTCCCAGCTGATGAATTAGTTGTTTCGAGTAAACAAATTTTCCTAATCTTTCTGTTCAAGCGCCATCTAC”, the binding signal (RPM ratio (pull-down/input)) was found to be 6.61. The same measure for “GATGATTGTTCTCCCAGCTGATGAATTACTAGATTCGAGTAAACAAATTTTCCTAATCTTTCTGTTCAAGCGCCATCTAC”: 0.313; for “GATGATTGTTCTCCCAGCTGATGAATTATTGAAATCGAGTAAACAAATTTTCCTAATCTTTCTGTTCAAGCGCCATCTAC”: 0.461; for “GATGATTGTTCTCCCAGCTGATGAATTCCAGTCGTCGAGTAAACAAATTTTCCTAATCTTTCTGTTCAAGCGCCATCTAC”: 0.493. The same measure for “GATGATTGTTCTCCCAGCTGATGAATTCCGTGAATCGAGTAAACAAATTTTCCTAATCTTTCTGTTCAAGCGCCATCTAC”: 0.272; for “GATGATTGTTCTCCCAGCTGATGAATTCTTTCCTTCGAGTAAACAAATTTTCCTAATCTTTCTGTTCAAGCGCCATCTAC”: 0.23.

For the sequence “GATGATTGTTCTCCCAGCTGATGAATTGGATTGCTCGAGTAAACAAATTTTCCTAATCTTTCTGTTCAAGCGCCATCTAC”, the binding signal (RPM ratio (pull-down/input)) came out at 1.29. For the sequence “GATGATTGTTCTCCCAGCTGATGAATTTACCTAGTCGAGTAAACAAATTTTCCTAATCTTTCTGTTCAAGCGCCATCTAC”, the binding signal (RPM ratio (pull-down/input)) was determined as 0.33. As to “GATGATTGTTCTCCCAGCTGATGAATTCGCCTGATCGAGTAAACAAATTTTCCTAATCTTTCTGTTCAAGCGCCATCTAC”, the binding signal (RPM ratio (pull-down/input)) is 0.388. “GATGATTGTTCTCCCAGCTGATGAATTGCCTAGTTCGAGTAAACAAATTTTCCTAATCTTTCTGTTCAAGCGCCATCTAC”: the binding signal (RPM ratio (pull-down/input)) was 0.527.

“GATGATTGTTCTCCCAGCTGATGAATTAGTCAACTCGAGTAAACAAATTTTCCTAATCTTTCTGTTCAAGCGCCATCTAC”: the binding signal (RPM ratio (pull-down/input)) is 0.728.

Turning to “GATGATTGTTCTCCCAGCTGATGAATTTGAAAGTTCGAGTAAACAAATTTTCCTAATCTTTCTGTTCAAGCGCCATCTAC”, the binding signal (RPM ratio (pull-down/input)) was 0.236. Next, “GATGATTGTTCTCCCAGCTGATGAATTTCCGCTATCGAGTAAACAAATTTTCCTAATCTTTCTGTTCAAGCGCCATCTAC”: 0.699.

On to “GATGATTGTTCTCCCAGCTGATGAATTGATAGCTTCGAGTAAACAAATTTTCCTAATCTTTCTGTTCAAGCGCCATCTAC”, for which the binding signal (RPM ratio (pull-down/input)) is 0.586.

Turning to “GATGATTGTTCTCCCAGCTGATGAATTAAATTAATCGAGTAAACAAATTTTCCTAATCTTTCTGTTCAAGCGCCATCTAC”, the binding signal (RPM ratio (pull-down/input)) amounted to 0.314. For “GATGATTGTTCTCCCAGCTGATGAATTTATAATGTCGAGTAAACAAATTTTCCTAATCTTTCTGTTCAAGCGCCATCTAC”, the binding signal (RPM ratio (pull-down/input)) was determined as 0.969. As for “GATGATTGTTCTCCCAGCTGATGAATTCTTTCAGTCGAGTAAACAAATTTTCCTAATCTTTCTGTTCAAGCGCCATCTAC”, the binding signal (RPM ratio (pull-down/input)) is 0.202. Regarding “GATGATTGTTCTCCCAGCTGATGAATTTCCGTCGTCGAGTAAACAAATTTTCCTAATCTTTCTGTTCAAGCGCCATCTAC”, the binding signal (RPM ratio (pull-down/input)) was 0.435.

Regarding “GATGATTGTTCTCCCAGCTGATGAATTGGCTGCCTCGAGTAAACAAATTTTCCTAATCTTTCTGTTCAAGCGCCATCTAC”, the binding signal (RPM ratio (pull-down/input)) worked out at 0.602. Next, “GATGATTGTTCTCCCAGCTGATGAATTACGATCCTCGAGTAAACAAATTTTCCTAATCTTTCTGTTCAAGCGCCATCTAC”: 0.509. Regarding “GATGATTGTTCTCCCAGCTGATGAATTACCCTCTTCGAGTAAACAAATTTTCCTAATCTTTCTGTTCAAGCGCCATCTAC”, the binding signal (RPM ratio (pull-down/input)) was 0.31.

For the sequence “GATGATTGTTCTCCCAGCTGATGAATTAGCCTAGTCGAGTAAACAAATTTTCCTAATCTTTCTGTTCAAGCGCCATCTAC”, the binding signal (RPM ratio (pull-down/input)) turned out to be 0.301.

Consider “GATGATTGTTCTCCCAGCTGATGAATTCGCTTGGTCGAGTAAACAAATTTTCCTAATCTTTCTGTTCAAGCGCCATCTAC”, for which the binding signal (RPM ratio (pull-down/input)) was 1.56. Next, “GATGATTGTTCTCCCAGCTGATGAATTGACGGTATCGAGTAAACAAATTTTCCTAATCTTTCTGTTCAAGCGCCATCTAC”: 0.612; “GATGATTGTTCTCCCAGCTGATGAATTGTCAGAATCGAGTAAACAAATTTTCCTAATCTTTCTGTTCAAGCGCCATCTAC”: 0.223. As for “GATGATTGTTCTCCCAGCTGATGAATTCTTCCAATCGAGTAAACAAATTTTCCTAATCTTTCTGTTCAAGCGCCATCTAC”, the binding signal (RPM ratio (pull-down/input)) came out at 0.246.

With “GATGATTGTTCTCCCAGCTGATGAATTACACTTGTCGAGTAAACAAATTTTCCTAATCTTTCTGTTCAAGCGCCATCTAC”, the binding signal (RPM ratio (pull-down/input)) came to 0.829. Next, “GATGATTGTTCTCCCAGCTGATGAATTAGGACTCTCGAGTAAACAAATTTTCCTAATCTTTCTGTTCAAGCGCCATCTAC”: 1.4; “GATGATTGTTCTCCCAGCTGATGAATTTTTTGTTTCGAGTAAACAAATTTTCCTAATCTTTCTGTTCAAGCGCCATCTAC”: 0.423; “GATGATTGTTCTCCCAGCTGATGAATTCCAATTATCGAGTAAACAAATTTTCCTAATCTTTCTGTTCAAGCGCCATCTAC”: 0.917. For “GATGATTGTTCTCCCAGCTGATGAATTACCTGTATCGAGTAAACAAATTTTCCTAATCTTTCTGTTCAAGCGCCATCTAC”, the binding signal (RPM ratio (pull-down/input)) was 0.553.

On to “GATGATTGTTCTCCCAGCTGATGAATTGTGGCACTCGAGTAAACAAATTTTCCTAATCTTTCTGTTCAAGCGCCATCTAC”, for which the binding signal (RPM ratio (pull-down/input)) worked out at 2.09. Next, “GATGATTGTTCTCCCAGCTGATGAATTACCGTCCTCGAGTAAACAAATTTTCCTAATCTTTCTGTTCAAGCGCCATCTAC”: 0.414; “GATGATTGTTCTCCCAGCTGATGAATTCATATTCTCGAGTAAACAAATTTTCCTAATCTTTCTGTTCAAGCGCCATCTAC”: 0.783; “GATGATTGTTCTCCCAGCTGATGAATTGGAACTGTCGAGTAAACAAATTTTCCTAATCTTTCTGTTCAAGCGCCATCTAC”: 0.287.

“GATGATTGTTCTCCCAGCTGATGAATTTGATCCATCGAGTAAACAAATTTTCCTAATCTTTCTGTTCAAGCGCCATCTAC”: the binding signal (RPM ratio (pull-down/input)) stood at 0.378.

Turning to “GATGATTGTTCTCCCAGCTGATGAATTTCCACGTTCGAGTAAACAAATTTTCCTAATCTTTCTGTTCAAGCGCCATCTAC”, the binding signal (RPM ratio (pull-down/input)) worked out at 0.311. With “GATGATTGTTCTCCCAGCTGATGAATTGGCCAACTCGAGTAAACAAATTTTCCTAATCTTTCTGTTCAAGCGCCATCTAC”, the binding signal (RPM ratio (pull-down/input)) stood at 0.293. As for “GATGATTGTTCTCCCAGCTGATGAATTAGTTGGGTCGAGTAAACAAATTTTCCTAATCTTTCTGTTCAAGCGCCATCTAC”, the binding signal (RPM ratio (pull-down/input)) was found to be 4.35. “GATGATTGTTCTCCCAGCTGATGAATTGCTTCCCTCGAGTAAACAAATTTTCCTAATCTTTCTGTTCAAGCGCCATCTAC”: the binding signal (RPM ratio (pull-down/input)) was 0.536. With “GATGATTGTTCTCCCAGCTGATGAATTACGGGCATCGAGTAAACAAATTTTCCTAATCTTTCTGTTCAAGCGCCATCTAC”, the binding signal (RPM ratio (pull-down/input)) was found to be 0.864.

On to “GATGATTGTTCTCCCAGCTGATGAATTGCCACGGTCGAGTAAACAAATTTTCCTAATCTTTCTGTTCAAGCGCCATCTAC”, for which the binding signal (RPM ratio (pull-down/input)) is 0.641. The same measure for “GATGATTGTTCTCCCAGCTGATGAATTAGACGTTTCGAGTAAACAAATTTTCCTAATCTTTCTGTTCAAGCGCCATCTAC”: 0.64; for “GATGATTGTTCTCCCAGCTGATGAATTATCAGTGTCGAGTAAACAAATTTTCCTAATCTTTCTGTTCAAGCGCCATCTAC”: 0.455. The same measure for “GATGATTGTTCTCCCAGCTGATGAATTCATGCAGTCGAGTAAACAAATTTTCCTAATCTTTCTGTTCAAGCGCCATCTAC”: 0.842. Take “GATGATTGTTCTCCCAGCTGATGAATTAGAGGAATCGAGTAAACAAATTTTCCTAATCTTTCTGTTCAAGCGCCATCTAC”: the binding signal (RPM ratio (pull-down/input)) came to 0.196.

For the sequence “GATGATTGTTCTCCCAGCTGATGAATTAGGACCGTCGAGTAAACAAATTTTCCTAATCTTTCTGTTCAAGCGCCATCTAC”, the binding signal (RPM ratio (pull-down/input)) amounted to 0.34. Regarding “GATGATTGTTCTCCCAGCTGATGAATTGACCCCATCGAGTAAACAAATTTTCCTAATCTTTCTGTTCAAGCGCCATCTAC”, the binding signal (RPM ratio (pull-down/input)) came to 0.381.

Take “GATGATTGTTCTCCCAGCTGATGAATTAGGATAGTCGAGTAAACAAATTTTCCTAATCTTTCTGTTCAAGCGCCATCTAC”: the binding signal (RPM ratio (pull-down/input)) was determined as 0.432.

Values taken from article PMC12820563.
